The list shows a part of the results. Values were computed here from the reads of four pooled replicates and scatter widely.
Each sequence was assayed against T1, Pho4 (S. cerevisiae) (UniProt P07270) (assay: relative binding free energy (BET-seq); higher = weaker binding). Details: reference: library average.
T1 sequence: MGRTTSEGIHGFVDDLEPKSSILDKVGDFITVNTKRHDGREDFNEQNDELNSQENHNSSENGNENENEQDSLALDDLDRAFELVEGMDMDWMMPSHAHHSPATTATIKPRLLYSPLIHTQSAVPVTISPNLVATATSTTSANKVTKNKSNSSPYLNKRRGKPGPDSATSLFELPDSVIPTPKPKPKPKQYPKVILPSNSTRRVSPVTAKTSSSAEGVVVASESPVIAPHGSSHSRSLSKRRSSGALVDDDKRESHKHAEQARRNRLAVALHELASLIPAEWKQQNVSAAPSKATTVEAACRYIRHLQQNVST

Row | Sequence | relative binding free energy [kcal/mol]
1 | CGGAGCACGTGTTGTT | -0.02
2 | TTAATCACGTGTACGG | 0.17
3 | TTGATCACGTGCGGGC | -0.02
4 | CTGTTCACGTGGTTAA | 0.09
5 | TATAACACGTGGGCTT | -0.14
6 | ATGTACACGTGGATTG | 0.05
7 | GGTTTCACGTGGTAGG | 0.37
8 | AGTGTCACGTGGAAGA | 0.12
9 | TCTCTCACGTGTTGTG | 0.14
10 | TGGGTCACGTGATCGT | 0.29
11 | GCCGTCACGTGGGTGT | -0.07
12 | GGTGACACGTGTTCGG | -0.03
13 | CGGTTCACGTGGTGTC | 0.25
14 | ATTTACACGTGAATTA | 0.26
15 | TCATACACGTGTGGTG | 0.08
16 | TATTTCACGTGCTATT | 0.14
17 | TGTTGCACGTGATGAC | 0.02
18 | TGTTCCACGTGGGTGG | 0
19 | TGAATCACGTGTTAGG | 0.24
20 | CTGGACACGTGGGGCG | -0.1

Row | Sequence | relative binding free energy [kcal/mol]
21 | GGTGTCACGTGATTGC | 0.16
22 | AAGTTCACGTGTCATG | 0.29
23 | CGTGACACGTGTCGGT | 0.05
24 | TGGGTCACGTGTCAGT | 0.18
25 | AGTAACACGTGTGGAA | -0.04
26 | TCGTGCACGTGAGGCT | 0.07
27 | TCGGGCACGTGGAGGC | -0.09
28 | TGGAGCACGTGACGGT | 0.14
29 | AGGGGCACGTGTGAAA | 0.06
30 | TATTCCACGTGAGTGG | 0.17
31 | GGTGACACGTGTCGTG | 0.06
32 | AGGAACACGTGCGGTT | 0
33 | GCTGGCACGTGTAGGG | -0.05
34 | ATCGGCACGTGAATTT | 0.27
35 | TCAAACACGTGGGGGT | -0.24
36 | ACTTACACGTGTTTGT | -0.01
37 | GTGGTCACGTGGTGAT | 0.13
38 | GGAATCACGTGAATGT | 0.39
39 | CTTGGCACGTGGAAGT | 0.04
40 | TTCATCACGTGTAGTA | 0.09

Row | Sequence | relative binding free energy [kcal/mol]
41 | GATTGCACGTGTAGAA | 0.21
42 | TCGGTCACGTGGTCGA | 0.03
43 | AGCGGCACGTGAGCTG | 0.21
44 | GGCCTCACGTGTGTGG | 0.33
45 | GAGTTCACGTGTGTTT | 0.4
46 | AGTGTCACGTGTTTAC | 0.03
47 | TGTAACACGTGGCGTG | -0.08
48 | TGATGCACGTGCTGGT | -0.04
49 | GCGGTCACGTGAGGCG | 0.29
50 | GTTTACACGTGGTGCC | 0.15
51 | GGTTACACGTGTTGGA | 0.27
52 | TGGACCACGTGTTATT | 0.13
53 | TTTGGCACGTGGTGTG | -0.14
54 | TTTATCACGTGGAAGC | 0.3
55 | GTGGTCACGTGGTGTC | 0.14
56 | CGGGTCACGTGGGTAA | -0.01
57 | ACGGGCACGTGTGAGA | -0.04
58 | ATGCGCACGTGGGCAG | -0.22

Reference: the BET-seq Pho4 binding data (Le et al. 2018)
